Measured values from the supplement of paper PMC11417369.
± gives the standard deviation of the averaged measurements. This is one part of the list.

System: PfAP2-G AP2 domain (GST-tagged)
Experiment: gcPBM binding intensity (ln(normalized median fluorescence intensity)); higher = stronger DNA binding
Procedure, shortened: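 An Agilent 4 × 180k array carrying primer-extended double-stranded 36-bp intergenic genomic probes and negative controls received GST-tagged P. falciparum DNA-binding domains expressed in E. coli, about 25 μg on average, for 1 h. The binding buffer contained 1× PBS, 1% milk, 0.2 mg/ml BSA, 0.5% salmon testes DNA and 0.03% Triton X-100. Binding intensity is the top Masliner-normalised natural-log median intensity across replicate spots of either probe orientation, read after Alexa488 anti-GST antibody staining and a 488 nm scan.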

Sequence | gcPBM binding intensity (ln)
ATAAAAAATAAATAAGGTACAGAACATTTATACATT [XGTACX_site1783] | 11 ± 0.62
AAATTAAACAATAAATGTACATATATATTTGTATAT [XGTACX_site1092] | 11.2 ± 0.42
AAAACCTAAAAGTCTTAAATTTTAAATATACCTACA [GTGCAC_negctrl_site492] | 9.78 ± 0.2
CTTTTATTGCTCTATATGCACACCTTAATTCTTCAT [CACACA_site2195] | 10.21 ± 0.021
GCAAAATTTCCTAAGGTGCTTTTATTTTACACCGTT [GTGCAC_site9923] | 9.97 ± 0.042
AATGGGTTAGCACATACACACCAATATATTATAGAT [CACACA_site7444] | 9.99 ± 0.014
TTTATTACCATATTTTGTACACACATCTTTATCTCA [XGTACX_site6842] | 11.1 ± 0.55
TGGAAAATTATTAACACACACATATAAATATATATA [CACACA_site46] | 9.78 ± 0.13
TTCTTACATAAAATATCACACACATAAAAAAACAAT [CACACA_site8576] | 10.09 ± 0.014
GTAATAAGAATTATAGTGCAATGTAATACATTTATA | 9.79 ± 0.099
ACTCTATACATCTAATGTACATGGAAAAAAAAATTC [XGTACX_site733] | 11 ± 0.59
ATTAAAATGGTATGTGCGCACATAATATATATATGT [GTGCAC_site9572] | 10.7 ± 0.35
ACATTGACATGTCGAAGTACTCAAGAAGCATACAAT [XGTACX_site3948] | 11.2 ± 0.72
ATATAAATGATATGTACACACATTTATATTTATAAA [CACACA_site7600] | 11.5 ± 0.86
TTTCTTTGAATAAATACACACGAGAAATGAAAGTAG [CACACA_site8490] | 10.4 ± 0.33
TAATTTGAACGGTACAGTACTCTTTTTCTTTTTCAT [XGTACX_site5534] | 11.2 ± 0.57
ATATATTTTTTCAATTGTACGTTTTAATAATATTTA [XGTACX_site2130] | 11.3 ± 0.81
AATACAACATAATGAAGTACTGTATTTTATATTACT [XGTACX_site4885] | 10.8 ± 0.47
CTTGGGAAGTATTCAGTGCAAAATATAAGCAGGTCA [GTGCAC_site9758] | 10.08 ± 0.085
TCGTGGGAAAATATTACACACATTTACTATAGTATC [CACACA_site5836] | 10 ± 0.071
TATTACAAATAATACCGTACACAAATGTTTTTTTAT [XGTACX_site7977] | 11 ± 0.61
AAAAGAAATAAGGATACACACTATTGATAAAAGTAG [CACACA_site4309] | 10.28 ± 0.092
TATATTATCAAAATGGTGCAATAATTTCTATATTAT [GTGCAC_site9772] | 9.93 ± 0.14

Sequence | gcPBM binding intensity (ln)
ATATATATATTGAAAAGTACATATATATATATATTA [XGTACX_site1560] | 11.2 ± 0.68
ACCGGTGGAACGTTTTGTACATATATAATAATATAT [XGTACX_site2143] | 11.1 ± 0.79
TGGATAATCAAAAATTGTACAAGTGTTGTTATTGGT [XGTACX_site8010] | 11 ± 0.56
GAACCTTTAAAATACACACCCAAATCCTTTGAAATA [CACACA_site3630] | 10.1 ± 0.085
ATATTTTACAAATGCACACATAATTTTTTTTTTTTT [CACACA_site2763] | 9.825 ± 0.035
GGTTAAAAAAAGCATACACACTATCCTCTTTGCTCT [CACACA_site7246] | 9.77 ± 0.15
CTTTTTTATTTTTCAACACACATAATAAATTTCTAT [CACACA_site1037] | 9.96 ± 0.071
TACATAAATACATACATACACACATATATATATATA [CACACA_site2105] | 10.2 ± 0.33
TTTTTTTTTATATATACACACAATAAATAAATATAA [CACACA_site2954] | 10.1 ± 0.3
TTTATACAAAAGAACAGTACAATAAAGGATTTATGA [XGTACX_site811] | 10.7 ± 0.33
AGCAGACACCAACACACACACATATATATATATATA [CACACA_site337] | 10.2 ± 0.2
TATATATTAATCAAAGTGCAATAATAAAATAAAAGT [GTGCAC_site9490] | 10.19 ± 0.085
CTCTAATTAATATTTGTACACACATATTTAACCTAC [CACACA_site9043] | 11.4 ± 0.72
TAACTTTATTTTCCTGTACACACATTTGACATATTA [CACACA_site9116] | 11.5 ± 0.81
TCAAATTACGTAAGAACATGCGATATAAGAAATACG [TGCATGCA_site691] | 10.3 ± 0.11
AATTATTTTAAATATTGTACTATTACAGAATGGTGT [XGTACX_site5693] | 11 ± 0.56
ATATAAAAAATATAAGGTACACATATATGTAGATAT [XGTACX_site6792] | 11.2 ± 0.77
TAAATAAAATACAAATGTACATAAATAATAAATATA [XGTACX_site1813] | 11.1 ± 0.47
CATATTCCCCCCCACACACACACACGCATACATACC [CACACA_site7148] | 11.8 ± 0.6
TCTTTTTCATCTTTCAACAAAAAATAATATATGTGT [CACACA_negctrl_site866] | 10.1 ± 0.18
TAAATTTGTGTTATTAAAAAAATGGTTTAAAAATGT [XGTACX_negctrl_site352] | 10.045 ± 0.007
TTTCTTACAAAAGCTAGAGTTTTTTTTTTTTTTTTT [XGTACX_negctrl_site341] | 10.19 ± 0.049
TGTTTTTATAAAATAAATAAATATATATATATATAT [CACACA_negctrl_site502] | 10 ± 0.69

Sequence | gcPBM binding intensity (ln)
AAATATACAATATTCACACAAAAAAATACATTACAA [CACACA_site5004] | 9.98 ± 0.16
ATATATTTATATTGTACACACATTTATGCATATATA [CACACA_site7502] | 11.4 ± 0.77
ATCCTTAATATGAACACACAAATATATTGCACATAT [CACACA_site6230] | 10.19 ± 0.085
AGAATAAATATGCACACATGCATATATTTTTACACT [TGCATGCA_site893] | 9.95 ± 0.014
TTAGTCCATATTTTTGCACACCATTTTTTTTTTTTT [CACACA_site3927] | 10.7 ± 0.39
GTATCAAAAGAATACACACACACATACAGATATATA [CACACA_site5975] | 10.1 ± 0.16
TGATATTATATATATACACACATGTATGTATTTATA [CACACA_site4874] | 9.98 ± 0.34
TTTATTATTTTAACGTGTACAAGGTATATAATATTC [XGTACX_site5241] | 11.3 ± 0.8
TAGGTAAATGCAAATTGGTTTAAATCAAAATATAAA [XGTACX_negctrl_site250] | 9.89 ± 0.071
ATAAACAAACATAAATCTGATTTTAATTTTTTTAAG [CACACA_negctrl_site313] | 9.545 ± 0.064
TAGGGTAGTTATAATTGTACTTTTCTCCAAAAAAAA [XGTACX_site7321] | 11.3 ± 0.81
TTTTTGTTTTTTTGTTTATCGTTCGTGACTACATGA [TGCATGCA_negctrl_site124] | 10.2 ± 0.39
GAAATCTAAATAGAAACACACATATATATATATATA [CACACA_site3863] | 9.8 ± 0.29
TTATATTTTCTCCGCGTGCACATATGTATACTATAC | 10.7 ± 0.26
TACATATTTTTATATACACACAATAATTACTATAAA [CACACA_site6879] | 10 ± 0.16
AATTTTAATTATATCACACATAATATATACCAAAAA [CACACA_site6011] | 10.2 ± 0.36
TTTAATACTTTTTTCTGTACACACTTGATTTACTAT [XGTACX_site5925] | 11.5 ± 0.61
AAAAAAAAAAGACACACACACACACGGAGATATATA [CACACA_site6216] | 10.1 ± 0.22
AAAATACATAAACGTTCACACATTGAAGATCACAAG [CACACA_site5347] | 9.95 ± 0.042
TAGGTACATAAATTGGTGCAAAGTGTACATATATAT | 11.6 ± 0.92
AAAAATACAATTTTCTTGCACTTTGTTGCATTGTAA | 9.81 ± 0.11
AACATATACACGAACACACACACATATAAATAAATA [CACACA_site6380] | 10.3 ± 0.37
ATATGTTTATTAAATGCATGTCAAGACTTAAGATAT [TGCATGCA_site329] | 9.905 ± 0.035

Sequence | gcPBM binding intensity (ln)
TCATCCACATATTGTAGTACAAGATAATTGTTTATT [XGTACX_site1634] | 11.3 ± 0.86
CAAAATATAAAAACATGTACATAAATATTAACGAAT [XGTACX_site2380] | 11.3 ± 0.83
TATACACATATATAAAGTACATATATGTGTAAAAAA [XGTACX_site8582] | 11 ± 0.64
ATATGCATAAAAAGAGGTACACATAAAATATATATA [XGTACX_site5864] | 11.5 ± 0.91
TTTTTTGGGTAAAATTATAAAATATGTATATATAAA [CACACA_negctrl_site27] | 9.84 ± 0.11
TTTTTTTTTGTATTTTCACACATTTTTTTTTTTTTT [CACACA_site5407] | 9.94 ± 0.16
TTATTTAAACAAATCACACACAAATATATATACATA [CACACA_site2019] | 10.07 ± 0.078
CAAAAAATGAAACACACACACACACCCATAAATAAA [CACACA_site1231] | 10.3 ± 0.2
TCATATATAAAAAGGGTGCTTTTAAAAGAATGGATT | 10.02 ± 0.028
CAGATATTTGTTCATATACACACTTTTGATAAAATA [CACACA_site1219] | 10.04 ± 0.014
AATATTTTTTGTTTTACACACATATATAGATATATA [CACACA_site7662] | 9.915 ± 0.021
TATAATCATATATACACACACATATATATATATATA [CACACA_site2168] | 10.2 ± 0.61
CATATTTTCAAAATTAGTACATAAAAAAAAAAATAT [XGTACX_site3101] | 11.4 ± 0.76
GACCTACAAAAAGGCACACATATACGCATACATACA [CACACA_site2179] | 10.5 ± 0.26
TCTTCCGCTTTATGGAGTACTATGGTAGCCTTTCCT [XGTACX_site2958] | 11.2 ± 0.76
AATGGAAATGTAAAATGTACAGGACGCACACACATA [XGTACX_site7788] | 11.1 ± 0.54
AAAAAAAATTAAAATAAATTAAAAAGTAATTATATA [GTGCAC_negctrl_site615] | 9.31 ± 0.33
AATGAGAAGGACTGCACACTAAAATGGAAGGAGAAA [CACACA_site1575] | 10.6 ± 0.59
ATGTTGTGTATATATACACACATACATATATATATA [CACACA_site8461] | 10.4 ± 0.43
GAAATATTTAGACACACACACAAACATATAAATATA [CACACA_site6980] | 10.07 ± 0.049
GATTATATTATATATTAAATATAAATATGTATTATA [TGCATGCA_negctrl_site66] | 9.8 ± 0.085
